From patent KR20190105077A
Values joined by “and” are separate entries in the source; they are usually repeats but may differ in a detail not shown here. Equal values may be shown once.

B1: Ab1 (antibody, human IgG4 S228P, kappa)
heavy: QVQLVQSGAEVKKPGSSVKVSCKASGYTFSSNVISWVRQAPGQGLEWMGGVIPIVDIANYAQRFKGRVTITADESTSTTYMELSSLRSEDTAVYYCASTLGLVLDAMDYWGQGTLVTVSSASTKGPSVFPLAPCSRSTSESTAALGCLVKDYFPEPVTVSWNSGALTSGVHTFPAVLQSSGLYSLSSVVTVPSSSLGTKTYTCNVDHKPSNTKVDKRV[human IgG4 Fc with S228P (EU numbers) omitted here]
light: ETVLTQSPGTLSLSPGERATLSCRASQSLGSSYLAWYQQKPGQAPRLLIYGASSRAPGIPDRFSGSGSGTDFTLTISRLEPEDFAVYYCQQYADSPITFGQGTRLEIKRTVAAPSVFIFPPSDEQLKSGTASVVCLLNNFYPREAKVQWKVDNALQSGNSQESVTEQDSKDSTYSLSSTLTLSKADYEKHKVYACEVTHQGLSSPVTKSFNRGEC
B2: 프레솔리무맵 (fresolimumab) (antibody, human IgG4, kappa)
heavy: QVQLVQSGAEVKKPGSSVKVSCKASGYTFSSNVISWVRQAPGQGLEWMGGVIPIVDIANYAQRFKGRVTITADESTSTTYMELSSLRSEDTAVYYCASTLGLVLDAMDYWGQGTLVTVSSASTKGPSVFPLAPCSRSTSESTAALGCLVKDYFPEPVTVSWNSGALTSGVHTFPAVLQSSGLYSLSSVVTVPSSSLGTKTYTCNVDHKPSNTKVDKRV[human IgG4 Fc omitted here]
light: B1 light

Tests used:
모든 인간 및 쥐과 TGF-β 이소형 = assay: SPR (summing-up sentence of Example 1)
[1] = target: 배양된 세포에 의해 내인적으로 생성되는 TGF-β; assay: cell-based or functional assay
[2] = target: 인간 TGF-β3 (human TGF-β3) (human) (UniProt P10600); assay: SPR, Biacore T200, TGF-β homodimer immobilised at low density on CM5 chip, Ab1 injected at 1.11-30 nM, 1:1 model
Sequence of UniProt P10600 (P10600 301-412): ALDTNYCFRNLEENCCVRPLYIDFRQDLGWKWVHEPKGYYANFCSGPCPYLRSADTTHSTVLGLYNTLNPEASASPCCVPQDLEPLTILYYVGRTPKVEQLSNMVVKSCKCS

[3] = target: 인간 TGF-β2 (human TGF-β2) (human) (UniProt P61812); assay: as above
[4] = target: 쥐과 TGF-β2 (murine TGF-β2) (mouse) (UniProt P27090); assay: as above

| Kd (모든 인간 및 쥐과 TGF-β 이소형) | iTreg(FOXP3+CD25+) 백분율, 자극된 인간 CD4+ T 세포, 항체 50 ㎍/㎖, 외인성 TGF-β 없음 (항체 없이 15%) [1] [%] | Kd [2] [nM] | koff [2] [s⁻¹] | kon [2] [M⁻¹ s⁻¹] | Kd [3] [nM] | koff [3] [s⁻¹] | kon [3] [M⁻¹ s⁻¹] | Kd [4] [nM] | koff [4] [s⁻¹] | kon [4] [M⁻¹ s⁻¹] | Binder |
| --- | --- | --- | --- | --- | --- | --- | --- | --- | --- | --- | --- |
| 1 nM and 5 nM | 8 | 1.65 | 0.000372 | 223000 | 3 | 0.000823 | 286000 | 1.88 | 0.000645 | 348000 | B1 |
|  | 7 |  |  |  |  |  |  |  |  |  | B2 |
